PubChem BioAssay AID938 (National Center for Advancing Translational Sciences (NCATS), 2007)
Among all 73,000 compounds or so, about 1,800 (2.5%) were called active. The inconclusive results got no clear call from the source; some entries with a clear call stand among them for comparison. Calls follow the shape of the dose curve; as a rule, active = well fitted activation curve with a large enough effect; inconclusive = small, poorly fitted or top-dose-only effect; inactive = no such curve, though single readings can be large or run the other way. Potencies of inconclusive entries are left out as doubtful fits.

test: qHTS Assay for Agonists of the Thyroid Stimulating Hormone Receptor: Activators of Intracellular cAMP Concentrations in Parental HEK 293; details: parental HEK293 CNG cAMP sensor, membrane potential fluorescence; activation: at 57.1 µM (top of the series) unless noted; also: nearly all actives have a fitted effect of over 55% in size; as to activation: % of control where 0% means no effect
Outline: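 Parental HEK 293 cells stably expressing a cAMP-gated CNG channel were loaded with membrane potential dye containing 100 uM RO 20-1724 for 60 min. Compound added for 30 min; depolarization read as fluorescence intensity at 590 nm.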
Potency is read from the fitted curve at half-maximal effect; tags tell the direction and shape of the fitted curve.

SMILES | Potency | activation
COC(=O)c1ccc(-n2nnnc2SCC(=O)Nc2ccccc2OC)cc1 | inconclusive [activator, partial curve] | 
CCOc1cc(S(=O)(=O)Nc2ccccn2)ccc1F | inconclusive [activator, partial curve] | 
O=C(CCn1cccc1)NCc1ccccc1 | inconclusive [activator, full curve, poor fit] | 
CN(C)CCNC(=O)c1ccc(-n2c(=O)c(=O)[nH]c3ccccc32)cc1 | inactive | 
COC(=O)c1c(NC(=O)C2CCC2)sc(C(=O)N(C)C)c1C | inconclusive [activator, single point] | 
COc1ccc2c(c1)c1ncn(Cc3ccco3)c(=O)c1n2C | inconclusive [activator, single point] | 
CCOC(=O)c1cnc(SCC(=O)Nc2ccc3c(c2)OCCO3)nc1N | inconclusive [activator, partial curve] | 
CCOC(=O)Cc1csc(NC(=O)c2c(-c3ccccc3)noc2C)n1 |  | inactive: -5.02% [at 11.4 µM]
Fc1ccccc1OCCSc1nnnn1-c1ccccc1 | inactive | 
COc1cc(C)nc(NC(=O)COc2ccc(Cl)cc2C)n1 | inconclusive [activator, partial curve] | 
Cc1cc(NC(=O)CSCc2nc(-c3cccc(Cl)c3)oc2C)no1 | inconclusive [activator, partial curve] | 
CC(=O)N1CCc2cc(S(=O)(=O)NCCC3=CCCCC3)ccc21 | inconclusive [activator, full curve] | 
Cc1[nH]nc(-c2ccc(O)cc2O)c1-c1ccc(Cl)cc1 | inactive | 
O=C(c1csnn1)N1CCC2(CC1)CN(c1ccncc1)C2 | inactive | 
CCOc1ccc2nc(N3CCCC(C(=O)NCCCN4CCOCC4)C3)sc2c1 (stereo not given) | inconclusive [activator, single point] | 
N#Cc1nc(Cc2ccccc2)oc1N1CCN(c2ccccc2)CC1 | inconclusive [activator, partial curve] | 
CCOC(=O)CSc1nnc(Cc2ccccc2)n1Cc1ccco1 | inconclusive [activator, partial curve] | 
CCOC(=O)C1CCN(C(=O)Nc2ccc3nc(C)c(C)nc3c2)CC1 | inactive | 
COc1cccc(C2CC(c3cccc(C)c3)n3ncnc3N2)c1 (stereo not given) | inconclusive [activator, single point] | 
CCCOc1ccc2oc(=O)c3c(c2c1)CCCN3C(=O)CN1CCc2ccccc2C1 | inconclusive [activator, single point] | 
Cc1ccc(C)c(OCC(=O)Nc2ccc3c(c2)OCO3)c1 | inconclusive [activator, partial curve] | 
CC(=O)Nc1ccc(-c2cn3ccsc3n2)cc1 | inactive | 
COc1ccccc1CN1CC[C@@]2(CCCN(C(=O)c3ccncc3)C2)C1 | inactive | 
Cc1cc(NC(=O)c2ccc(S(=O)(=O)N3CCCC3)cc2)nc2c1c(=O)oc1ccccc12 | inconclusive [activator, single point] | 
CN1CCN(CC(=O)N2c3ccccc3Sc3cc4ccccc4cc32)CC1 |  | inactive: 23% [at 11.4 µM]

SMILES | Potency | activation
CN(C)c1ncc2nc(-c3ccc(Cl)cc3)c(=O)n(C3CC3)c2n1 | inactive | 
Cc1cccc(C(OC(=O)c2ccco2)C(=O)NCc2ccccc2)n1 (stereo not given) | inactive | 
Cc1ccc(CNC(=O)[C@H](C)[C@@H]2C[C@@]2(C)[C@@H](NC(=O)OCc2ccccc2)c2ccccc2)c(F)c1F | inactive | 
CC(C)[C@@H]1[C@H]2CC[C@H](C2)[C@H]1N | inactive | 
CCOc1ccc(OCC)c(NC(=O)Cn2cccc2)c1 | inconclusive [activator, single point] | 
CCOc1ccccc1C(=O)Nc1ccccc1C(N)=O | inconclusive [activator, single point] | 
CCOC(=O)Nc1cccc(OCC(=O)Nc2ccc(OC)cc2OC)c1 | inconclusive [activator, single point] | 
O=C(Nc1cccc(NC(=O)c2ccc(-c3cccc(Br)c3)o2)c1)c1ccco1 | inconclusive [activator, single point] | 
O=C(Cc1cccs1)N(Cc1ccco1)C1(C(=O)NC2CCCC2)CCCCC1 | active: 0.126 µM | 
CN(C)c1nc(N)c(C(=O)Nc2cccnc2)nc1Cl | inactive | 
NC(=NCc1ccc(Cl)c(Cl)c1)NC(=O)c1nc(Cl)c(N)nc1N | inconclusive [activator, single point] | 
COc1ccc(NC(=O)N2CCCC3(CCN(C(=O)c4csnn4)CC3)C2)cc1 | inactive | 
CCCCS(=O)(=O)/C=C\C1C2C=CC(C2)C1S(=O)(=O)CCCC (stereo not given) | inactive | 
Cc1cc(C)n2nc(NCc3ccccc3)nc2n1 | inconclusive [activator, single point] | 
CC1(C)C(=O)OC(C(=O)c2ccccc2)C(C)(C)C1=O (stereo not given) | inactive | 
CC(CN(C)Cc1ccccc1)OC(=O)c1ccc2c(c1)OCCO2 (stereo not given) | inconclusive [activator, single point] | 
COC(=O)c1ccc(CSc2nc3c(cnn3-c3ccc(C)cc3)c(=O)[nH]2)o1 | inactive | 
CC(C)Cn1c(=O)c(C(=O)NCc2ccccn2)c(O)c2ccccc21 | active: 25.1 µM | 
O=C(O)CCCNS(=O)(=O)c1cccs1 | inconclusive [activator, single point] | 
C(=N\n1cnnc1)/c1ccc(OCc2ccccc2)cc1 | inconclusive [activator, single point] | 
NS(=O)(=O)c1ccc(CCNC(=O)C2CCCN2C(=O)OCc2ccccc2)cc1 (stereo not given) | inconclusive [activator, full curve, poor fit] | 
Cc1ccc2oc3c(c(=O)c2c1)C(c1cccc(O)c1)N(c1ccccn1)C3=O (stereo not given) | inactive | 
O=C(NCc1ccc2c(c1)OCO2)C1CCCN(S(=O)(=O)c2cccc3nonc23)C1 (stereo not given) | inconclusive [activator, single point] | 
CCCC1(C(=O)OC)NC(c2ccco2)C2C(=O)N(c3ccc(C)cc3)C(=O)C21 (stereo not given) | inconclusive [activator, single point] | 
Cc1ccc(Cn2nnc3c(=O)[nH]c(C4CCN(S(=O)(=O)c5cc(C)ccc5C)CC4)nc32)cc1 | inactive | 

SMILES | Potency | activation
CC(C)(O)/C=C1/Oc2ccccc2C1N1CCCCC1 (stereo not given) | inconclusive [activator, partial curve] | 
CC(C)(C)OCC1CO1 (stereo not given) | inactive | 
O=C(c1ccncc1)N1CCC2(CC1)CN(c1cccc(-c3ccccc3)c1)C2 | inconclusive [activator, partial curve] | 
CCOC(=O)c1c(C)c(C(=O)N(C)C2CCCCC2)c(C)n1C | inconclusive [activator, partial curve] | 
Cc1ccnc(N2CCN(C(=O)CSc3nc4ccccc4nc3N3CCCCC3)CC2)c1 | inconclusive [activator, partial curve] | 
CCn1cc(SCC(=O)NCc2ccc3c(c2)OCO3)c2ccccc21 | inconclusive [activator, partial curve] | 
COc1ccc(N2CCN(CCCNC(=O)CC3Oc4ccc(C)cc4NC3=O)CC2)cc1 (stereo not given) | inactive | 
Cc1nc(NC2CCCCC2)c2nc(-c3ccccc3)n(CCCN(C)C)c2n1 | inconclusive [activator, partial curve] | 
COc1ccc(C(=O)N2CCCc3ccccc32)cc1 | inconclusive [activator, partial curve] | 
Cc1c(NC(=O)c2ccco2)cccc1-c1nc2cccnc2s1 | inactive | 
CC(C(=O)NCC1CCCO1)N(C(=O)c1snc(C(N)=O)c1N)c1cccc(F)c1 (stereo not given) | inconclusive [activator, single point] | 
c1ccc(CN(Cc2ccco2)C(c2ccncc2)c2nnnn2C2CCCC2)cc1 (stereo not given) | active: 10 µM | 
CCC(c1nnnn1Cc1ccco1)N(CCc1ccccc1)Cc1cc2cc(C)ccc2[nH]c1=O (stereo not given) | inconclusive [activator, partial curve] | 
Nc1ccc(O)c(C(=O)O)c1 | inactive | 
CC(C)=NOC[C@@H](O)COCc1ccco1 |  | inactive: -1.26% [at 11.4 µM]
Cc1cc(C(C)(C)CC(C)(C)C)ccc1OCCOCC[N+](C)(C)Cc1ccccc1 | inconclusive [activator, single point] | 
Cc1nc(NCCN2CCOCC2)c2oc3ccccc3c2n1 | inactive | 
CC(C)(C)NC(=O)NC(=O)COC(=O)C1CC(=O)N(Cc2ccccc2)C1 (stereo not given) | inconclusive [activator, single point] | 
Cc1ccc(C)c2nc(N3CCCC3)c(C#N)cc12 | inconclusive [activator, single point] | 
Cc1ncsc1C(=O)NCc1ccc(N2CCCC2=O)cc1 | inactive | 
Cc1cccc(N2CCN(c3cccc(C)c3)C2c2cccnc2)c1 | inconclusive [activator, partial curve, poor fit] | 
COC(=O)[C@H](Cc1ccccc1)NC(=O)[C@@H](C)CO |  | inactive: -3.6% [at 11.4 µM]
COC(=O)c1c(C)oc2ccc(NS(=O)(=O)c3cc(OC)ccc3OC)cc12 | inconclusive [activator, single point] | 
Cc1cc2nc(-c3ccc(NC(=O)C(C)C)cc3)oc2cc1C | inactive | 
Cc1cccc(CNc2ncnc3[nH]ncc23)c1 |  | inactive: -1.25% [at 11.4 µM]
